# Results from ChEMBL document CHEMBL4888484, “Replenishing the malaria drug discovery pipeline: Screening and hit evaluation of the MMV Hit Generation Library 1 (HGL1) against asexual blood stage Plasmodium falciparum ,using a nano luciferase reporter read-out” (2022).
# In all, about 150,000 compounds went through this assay and about 540 (0.36%) showed an effect of 50% or more. The list shows a part of the results.
# System: Plasmodium falciparum
# Assay: Primary screen in NF54 nanoGlo assay, in single point, at 2uM, 72h; a lower Z score goes with more inhibition
# Type: functional, Erythrocyte
# Conditions: timepoint 72 hour
SMILES,% Inhibition [%],Z score
COCCN1C(=O)Cc2ccccc2[C@@H]1C(=O)N1CCN(c2ccccc2F)CC1,3,-0.45
O=C(CCn1nnc2ccccc2c1=O)N1CCCC[C@H]1c1nc2ccccc2o1,-23,3.06
Cc1ccc2c(c1)CCCN2C(=O)c1cn2ccccc2n1,-6,0.84
COc1ccc2cc(-c3nc(CCN(C)C(=O)c4ccoc4)no3)[nH]c2c1,-3,0.57
O=C1CCc2cc(S(=O)(=O)N3C[C@@H]4CC[C@H]3CN(Cc3ccccc3)C4)ccc2N1,-15,1.97
CC(C)NC(=O)N(CCc1cccs1)C1CCOCC1,-7,1.07
COc1nc(-c2cccc(C(=O)N3C[C@@H]4CC[C@H](C3)C(=O)N4)c2)ncc1F,68,-12.2
Cc1cc(CNC(=O)[C@@H]2CCCCc3nn(Cc4cccc(F)c4)c(=O)n32)n(C)n1,-2,0.2
COc1nc2c(cc1CNC(=O)c1ccoc1C)C(=O)N(C1CCCC1)C2,-12,1.51
CCn1c(CN2CCC[C@H](C(F)(F)F)C2)nc2cc(S(=O)(=O)N3CCCCC3)ccc21,-12,1.53
O=C(Nc1ccc(N2CCOCC2)nc1)c1cccnc1,-12,1.3
COc1ccc(CNC(=O)[C@H]2C[C@@H](C(=O)Nc3ccc(F)cc3)CN(Cc3ccc4ccccc4c3)C2)cc1OC,-10,1.19
COc1cnc(NC(=O)N2CCCS(=O)(=O)C[C@H]2C2CC2)s1,3,-0.59
COc1cc(CN2CCN(CC#Cc3ccccc3)C[C@@H]2CCO)cc(OC)c1,-6,1.14
Cc1ccc2nc3c(cc2c1)CCN3S(=O)(=O)c1ccc(F)cc1,4,-0.41
CCC[C@H]1CN(C(=O)c2cccc(-c3ccco3)c2)C[C@@H]1N,-16,1.92
NC(=O)c1cccc(-c2noc([C@H]3CNCC34CCCCC4)n2)c1,-11,1.65
Cc1cc2n(n1)CCN(C(=O)N[C@H](c1cccs1)C1CCCCC1)C2,-16,2.07
CCC(=O)[C@@H]1CCCCN1C(=O)c1c[nH]c(C#N)c1,-6,0.86
CCN(C)c1ccccc1NC(=O)c1c[nH]nn1,-8,1.18
O=C(N[C@@H]1c2ccccc2OC[C@@H]1CO)[C@H](O)c1ccccc1,-2,0.41

SMILES,% Inhibition [%],Z score
CC(C)C[C@H](NC(=O)c1ccc(Cl)cc1Cl)C(=O)N1CCN(Cc2ccc3c(c2)OCO3)CC1,-5,1.07
Cc1ccc(OCc2c(C(=O)N3CCc4ccccc4C3)c(=O)cc(C)n2Cc2ccccn2)cc1,-16,3.02
Cc1noc(CCNC(=O)C[C@@H]2N=C(O)N(c3cccc4ccccc34)C2=O)n1,6,-0.72
COC(=O)[C@@H]1CN(C(=O)c2ccc(OC)c(S(=O)(=O)N3CCCCCC3)c2)C[C@H]1C,4,-0.4
CN=C(NCc1ccc(Cl)cc1)NC1CC1,-12,1.48
Cc1nc2n(c1C(=O)N(C)C)CCN(C(=O)[C@@H]1COc3ccccc3C1)C2,-18,2.35
CC[C@H](C)Oc1cc(-c2nc(COC)no2)ccn1,-3,0.57
Cc1cc(Cl)ccc1OCC(=O)NC(C)(C)CO,8,-1.58
Cc1ccc(-c2nc(C#N)c(S(=O)(=O)Cc3ccc(Cl)cc3)o2)cc1,5,-0.73
COc1ccc(NC(=O)Cn2c(C)cc3nc4n(c(=O)c32)CCCC4)cc1,-11,1.22
Cc1cc(N(C)C)cc(C)c1CC(=O)NCCc1cncn1C,-7,1.09
O=C1NC(=O)[C@@H]2CN(S(=O)(=O)c3ccc(C4CC4)cc3)C[C@H]12,1,-0.15
C[C@H](O)CN(C(=O)Nc1cccnc1)C1CCCCC1,13,-1.7
Cc1nc(-c2ccc(N3CCCC3)nc2)sc1C(=O)O,0,-0.04
O=C(NCc1noc(Cc2cccs2)n1)[C@H]1CCC[C@H](O)C1,-6,0.72
CC(C)(C)C1CC(C(=O)Nc2cccc3c2C(=O)NC3)C1 (centres undefined),0,0.05
Clc1ccccc1COc1ccccc1CNCc1ccc2c(c1)OCO2,-12,1.45
CCc1nnc(CNc2ccc(Cl)c(OC(F)F)c2)o1,-2,0.21
C[C@H]1C(=O)N(c2ccc(Cl)cc2Cl)CCN1C(=O)Nc1cccc(Cl)c1,-3,0.37
Cc1nnc(-c2cccc(NC(=O)[C@@H]3CCCCN3C(=O)C3CCOCC3)c2)s1,-14,1.61
O=C1CCCN1Cc1ncnn1-c1ccc2c(c1)OCCO2,-5,0.75
